Source: PubChem BioAssay AID504466 (National Center for Advancing Translational Sciences (NCATS), 2011)
About 4,200 (1.3%) of roughly 330,000 compounds were called active. Inconclusive results, whose numbers are uncertain, are shown with a selection of clear calls. Calls come from the whole dose curve; as a rule, active = well fitted activation curve with a large enough effect; inconclusive = small, poorly fitted or top-dose-only effect; inactive = no such curve, though single readings can be large or run the other way. A potency beside an inconclusive call is a rough fit, not a confirmed value.

test: qHTS screen for small molecules that induce genotoxicity in human embryonic kidney (HEK293T) cells expressing luciferase-tagged ELG1; conditions: HEK293T ELG1-luciferase reporter, luminescence, 16 h; series mostly up to 46 µM; activity change, positive = activation: at the top concentration; note: nearly all actives have a fitted effect of over 60% in size; for activity change, positive = activation: % of control where 0% means no effect
Summary of the method: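 Cells (2,000/well) expressing the ELG1-luciferase fusion are dosed by pin tool and kept 16 hr at 37 °C, 5% CO2. Signal comes from ONE-Glo luciferase reagent after 30 min at room temperature.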
Potency is the fitted concentration of half-maximal effect; tags give direction and shape of the fitted curve.

| Compound | Potency | activity change, positive = activation |
| --- | --- | --- |
| CC(=O)Nc1ccc(/C=N/NC(=O)c2cccs2)cc1 | active: 16.4 µM | – |
| c1csc(-c2cnc3ccccc3n2)c1 | inconclusive: 9.2 µM [activator, partial curve] | – |
| COc1cc(NC(=O)c2cccc(NC3=NC4CS(=O)(=O)CC4S3)c2)cc(OC)c1OC (centres undefined) | – | inactive: 7.99% |
| Cc1cccc(NC(=O)NCc2ccc3c(c2)cc(C)n3C)c1 | inconclusive: 25.9 µM [activator, single point] | – |
| COc1cc(Nc2cc(C)nc3ncnn23)cc(OC)c1 | active: 23.1 µM | – |
| C=CC[C@H](CC(=O)N(CCO)Cc1ccccc1)C(=O)N[C@H](COC(=O)[C@@H](CC=C)CC(=O)OC(C)(C)C)c1ccccc1 | – | inactive: -9.09% |
| COc1ccc(C(=O)CSc2nnc(CNC(=O)c3ccccc3)o2)cc1 | – | inactive: -3.13% |
| O=[N+]([O-])c1nn(-c2ccc3c(c2)OCCO3)n(O)c1=NC1CCCC1 | inconclusive: 20.6 µM [activator, partial curve] | – |
| Cc1cccc(Cc2cnc(NC(=O)c3ccc(C)o3)s2)c1 | active: 5.8 µM | – |
| CCCN1CCN(CCCNC(=O)c2ccc3nc(N4CCCCC4)sc3c2)CC1 | inconclusive: 1.03 µM [activator, full curve, poor fit] | – |
| O=C(Nc1nc(COc2ccccc2)cs1)C1CCC1 | inconclusive: 14.6 µM [activator, partial curve, poor fit] | – |
| COc1ccc(Cl)cc1NC(=O)NCC1CCN(Cc2cc(C)ccc2C)CC1 | – | inactive: 5.19% |
| O=C(N/N=C/c1ccco1)c1ccccn1 | inconclusive: 23.1 µM [activator, partial curve, poor fit] | – |
| CC(C)OP(=O)(OC(C)C)C(NC(=O)c1cccc([N+](=O)[O-])c1)C(N)=O (centres undefined) | inconclusive: 18.4 µM [activator, partial curve, poor fit] | – |
| COc1ccc2c3c(cccc13)N(C)N=C2C | – | inactive: 3.68% |
| COc1ccc(NC(=O)COC(=O)c2ccc(OCc3ccccc3Cl)c(OC)c2)c(OC)c1 | inconclusive: 29.1 µM [activator, partial curve, poor fit] | – |
| COCCCn1c(-c2ccc(OC)cc2)nc2nc3ccccc3nc21 | inconclusive: 23.1 µM [activator, partial curve, poor fit] | – |
| CCC(=O)Nc1cccc(C(=O)/C=C/c2cccs2)c1 | – | inactive: 11.9% |
| COC(=O)COc1ccc2c(=O)c(-c3ccccc3)coc2c1 | – | inactive: -1.93% |
| O=C(CN1CCCC1)Nc1nc(-c2ccc3c(c2)CCN3C(=O)c2ccccc2F)cs1 | – | inactive: -14.8% |
| COc1ccc2[nH]cc(/C=C/C(=O)c3ccccc3)c2c1 | inconclusive: 5.17 µM [activator, partial curve] | – |
| O=C(OCC(=O)N1CCCCC1)c1cc2ccccc2cc1O | inconclusive: 20.6 µM [activator, partial curve, poor fit] | – |

| Compound | Potency | activity change, positive = activation |
| --- | --- | --- |
| O=C(Nc1ccc(CN2CCCCC2)cc1)c1ccc(Br)o1 | inconclusive: 20.6 µM [activator, partial curve] | – |
| O=C(NC(Cc1ccccc1)c1nc2ccccc2[nH]1)c1cccc([N+](=O)[O-])c1 (centres undefined) | – | inactive: -3.01% |
| O=C(Nc1ccc2c(c1)OC1(CCCC1)O2)C1CC1 | inconclusive: 20.6 µM [activator, partial curve, poor fit] | – |
| O=C(Cn1cc(C(F)(F)F)cc(Cl)c1=O)NCc1ccc(F)cc1 | inconclusive: 20.6 µM [activator, partial curve, poor fit] | – |
| CCOC(=O)CC(NS(=O)(=O)Cc1ccccc1)c1ccc(C)cc1 (centres undefined) | – | inactive: -2.72% |
| CCOC(=O)c1c(C)[nH]c(N=Nc2ccccc2Cl)c1C | inconclusive: 23.1 µM [activator, partial curve, poor fit] | – |
| O=C(OCC(=O)N1CCCCCC1)c1ccccc1Br | inconclusive: 10.3 µM [activator, partial curve] | – |
| Oc1ccc(/C=N/Nc2cccc(Cl)n2)c(O)c1 | inconclusive: 5.8 µM [activator, full curve] | – |
| CCCC(=O)c1ccc(N2CCC(C)CC2)c(F)c1 | inconclusive: 23.1 µM [activator, partial curve, poor fit] | – |
| Cc1cc(=O)oc2cc(NC(=O)c3cccc(S(=O)(=O)N(C)C)c3)ccc12 | inconclusive: 3.98 µM [activator, partial curve, poor fit] | – |
| O=C(CS(=O)(=O)Cc1ccccc1)N1CCc2ccccc2C1 | inconclusive: 23.1 µM [activator, partial curve, poor fit] | – |
| O=C(O)c1cccc(NC2=C(Cl)C(=O)c3ccccc3C2=O)c1 | – | inactive: -23.6% |
| CCOC(=O)Cn1cnc(-c2ccc([N+](=O)[O-])cc2)c1 | inconclusive: 29.1 µM [activator, partial curve, poor fit] | – |
| O=c1c2ccccc2nc(SCc2nc(-c3ccccc3)no2)n1-c1ccc(F)cc1 | inconclusive: 6.51 µM [activator, partial curve, poor fit] | – |
| COc1ccc(C(=O)Nc2ccc(C(=O)NCCc3ccc(OC)c(OC)c3)cc2)cc1 | inconclusive: 23.1 µM [activator, partial curve, poor fit] | – |
| O=C(CN1CCOCC1)NN1CC(=O)N(c2ccc(Cl)cc2)CC1=O | – | inactive: -2.16% |
| CCOc1ccc2oc(C(=O)Nc3cc(C)ccn3)c(C)c2c1 | inconclusive: 2.91 µM [activator, partial curve] | – |
| COc1cccc(/C=C/C(=O)NNC(=O)c2ccco2)c1OC | inconclusive: 7.3 µM [activator, partial curve, poor fit] | – |
| COc1cc2c3nnc(-c4ccc(F)cc4)c-3cn(Cc3ccccc3)c2cc1OC | inconclusive: 20.6 µM [activator, single point] | – |
| COc1ccc(CCNC(=O)Nc2ccccc2[N+](=O)[O-])cc1 | inconclusive: 14.6 µM [activator, partial curve, poor fit] | – |
| COc1ccc(C2=NOC(C(=O)NCc3ccco3)C2)cc1 (centres undefined) | inconclusive: 29.1 µM [activator, single point] | – |
| O=C1N=C(N2CCOCC2)S/C1=C1\C(=O)N(Cc2ccccc2)c2ccc(Br)cc21 | – | inactive: 11.7% |
